# Experimental data: PubChem BioAssay AID624171 (National Center for Advancing Translational Sciences (NCATS), 2012)
# Out of some 410,000 compounds screened, about 1,200 (0.29%) were called active. This list was built around the results that the source calls inconclusive (neither active nor inactive); the mix of calls is not that of the screen. Calls come from the whole dose curve; as a rule, active = well fitted activation curve with a large enough effect; inconclusive = small, poorly fitted or top-dose-only effect; inactive = flat fitted curve, though single readings scatter. Potencies of inconclusive entries are doubtful fits and often do not repeat.
# Assay: qHTS of Nrf2 Activators; note: nearly all actives have a fitted effect of over 65% in size; for activation: % of control where 0% means no effect
# Details: AREc32 ARE-luciferase reporter (MCF7-derived line), luminescence, 24 h; activation: at 46.1 µM (top of the series)
# Method in brief: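 AREc32 cells carrying an ARE-driven firefly luciferase, 1000 cells/well in OPTI-MEM with 5% FBS, dosed after overnight attachment and incubated 24 hr at 37 deg C. Steady-Glo luminescence read after 30 min at RT.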
# Potency is the fitted concentration of half-maximal effect; tags give direction and shape of the fitted curve.
SMILES,Potency,activation
O=C(c1ccco1)c1cc2c(ccc3ccccc32)oc1=O,"inconclusive: 2.82 µM [activator, full curve]",–
Cc1cc2ccccn2c1C(=S)NC(=O)c1ccccc1,"inconclusive: 10 µM [activator, partial curve]",–
COc1ccccc1NC(=S)N(Cc1ccco1)Cc1cc2ccc(C)c(C)c2[nH]c1=O,–,inactive: 3.74%
COc1ccc(CNC(=O)c2cnn(-c3ccc(C)cc3)c2-n2cccc2)cc1OC,–,inactive: -0.769%
O=C(NC(=S)N1CCc2ccccc21)c1ccc(Br)o1,"inconclusive: 17.8 µM [activator, single point]",–
Cc1ccc(S(=O)(=O)Oc2ccc(/C=N/NC(=O)c3nn(C)cc3[N+](=O)[O-])cc2)cc1,"inconclusive: 35.5 µM [activator, single point]",–
O=C(Nc1cccc(Cl)c1)Nc1csc([N+](=O)[O-])c1,"inconclusive: 11.2 µM [activator, partial curve]",–
CCOc1ccc(CCNC(=O)CN2C(=O)NC3(CCCCCC3)C2=O)cc1OCC,–,inactive: 0.0259%
CN(C)CCn1c2ccccc2c2nc3ccc([N+](=O)[O-])cc3cc21,"inconclusive: 12.6 µM [activator, partial curve, poor fit]",–
CCN(C(=O)CSc1nc(-c2ccccc2)no1)c1cccc(C)c1,–,inactive: -1.63%
Cc1c(C(=O)Nc2ccccc2)sc2nc(-c3cc4ccccc4oc3=O)[nH]c(=O)c12,"inconclusive: 17.8 µM [activator, single point]",–
NS(=O)(=O)c1cccc(NC(=O)COC(=O)/C=C/c2nc3ccccc3s2)c1,"inconclusive: 22.4 µM [activator, single point]",–
O=C(O)Cc1ccc2c(c1)Cc1cccnc1O2,–,inactive: 0.238%
Cc1ccc(N/C=C/C(=O)c2ccccc2)cc1C,"inconclusive: 3.16 µM [activator, single point]",–
CCOc1ccc(NC(=O)CN2C(=O)NC(C)(c3ccc(OC(F)F)cc3)C2=O)cc1 (configuration not stated),"inconclusive: 20 µM [activator, single point]",–
CCN(C(=O)CSc1nc2ccccc2nc1Cc1cccc(OC)c1)c1cccc(C)c1,–,inactive: 0.34%
CC(=O)C[C@H]1c2ccccc2S(=O)(=O)N1C1CCCC1,–,inactive: 0.228%
Cn1nc(C(F)(F)F)c(C#N)c1N1CCN(c2ccccc2F)CC1,–,inactive: -0.332%
CCCOC(=O)c1ccc(NC(=O)CSC2=Nc3ccccc3C3CC=NN23)cc1 (configuration not stated),–,inactive: 3.02%
O=C1/C(=C\c2ccccc2)CCc2c1[nH]c1ccccc21,"inconclusive: 14.1 µM [activator, single point]",–
Nc1c(S(=O)(=O)c2ccccc2)c2nc3ccccc3nc2n1/N=C/c1cccc(O)c1,–,inactive: -1.18%
Cc1c(C(=O)N(Cc2ccco2)Cc2cccs2)oc2ccccc12,"inconclusive: 17.8 µM [activator, single point]",–
CC(=O)c1c(C)n([O-])c2cc(F)c(F)cc2[n+]1=O,"inconclusive: 20 µM [activator, single point]",–
O=C(CCNc1ccc(F)cc1)c1ccco1,"inconclusive: 35.5 µM [activator, single point]",–

SMILES,Potency,activation
BrC(=C\c1ccccc1)/C=N/N1CCN(c2ccccc2)CC1,"inconclusive: 22.4 µM [activator, single point]",–
Cc1nc2ccccc2c(=O)n1NCc1cc(Br)cs1,active: 7.94 µM,–
COC(=O)c1sc2cccc(F)c2c1S(=O)(=O)NC(C)c1ccccc1 (configuration not stated),"inconclusive: 22.4 µM [activator, single point]",–
CC(/C=N/n1c(-c2ccc(C)cc2)n[nH]c1=S)=C\c1ccco1,"inconclusive: 17.8 µM [activator, partial curve, poor fit]",–
CC1(C)NS(=O)(=O)Oc2ccccc21,–,inactive: -1.66%
Cc1nnnn1/C(=C\c1ccccc1)C(=O)OCC(=O)NC1CCCCC1,"inconclusive: 11.2 µM [activator, partial curve]",–
CC1=CC2=C(C=O)C(=O)C(C)(O)C(O)C2=CO1 (configuration not stated),–,inactive: 10.1%
O=C1c2cc(Br)ccc2OC2C=CC=CC12 (configuration not stated),"inconclusive: 6.31 µM [activator, partial curve]",–
O=C(C1=C(O)C(=O)N(c2nc3ccc(Cl)cc3s2)C1c1ccco1)c1ccco1 (configuration not stated),"inconclusive: 17.8 µM [activator, single point]",–
Cc1cccc2sc(NC(=O)C3CSC4(C)CCC(=O)N34)nc12 (configuration not stated),"inconclusive: 25.1 µM [activator, single point]",–
O=C(/C=C/c1ccco1)Nc1ccc(Cl)c(-c2nc3cc(Cl)ccc3o2)c1,"inconclusive: 0.708 µM [activator, full curve, poor fit]",–
CCOC(=S)SCC(=O)Nc1nccs1,"inconclusive: 31.6 µM [activator, single point]",–
CCc1cc2c(CN3CCN(CC)CC3)cc(=O)oc2cc1O,–,inactive: -0.206%
COc1ccccc1Nc1nc2ccccc2n2cnnc12,"inconclusive: 2.82 µM [activator, full curve, poor fit]",–
COc1ccc(OCCCN2CCc3ccccc3C2)cc1,–,inactive: -0.791%
CC(/C=C/c1ccc(C)o1)=C\C(=O)O,"inconclusive: 35.5 µM [activator, single point]",–
COc1ccc(-c2c(=O)n(OC)c3ccccc3[n+]2[O-])cc1OC,"inconclusive: 12.6 µM [activator, single point]",–
CN(Cc1ccccc1)C(=O)c1cc2c(s1)-c1ccc(Cl)cc1SC2,–,inactive: 5.3%
Cc1ccc2nc3cc([N+](=O)[O-])cc([N+](=O)[O-])c3cc2c1,"inconclusive: 17.8 µM [activator, partial curve, poor fit]",–
O=C(COC(=O)C1CCN(c2ccc(C(F)(F)F)cn2)CC1)Nc1cc(F)ccc1F,–,inactive: 0.11%
COC(=O)[C@@H]1Cc2c([nH]c3ccccc23)C(C)(C)N1C(=O)CCl,active: 10 µM,–
COc1ccc(Cc2nc3ccc(C(=O)NCc4cc(Br)ccc4OC)cc3o2)cc1,–,inactive: 1.54%
CC(NC(=O)COC(=O)c1cc(NS(=O)(=O)c2ccc(Cl)c([N+](=O)[O-])c2)ccc1O)C1CC2CCC1C2 (configuration not stated),"inconclusive: 31.6 µM [activator, single point]",–
Cc1ccc(S(=O)(=O)CCSc2n[nH]c(=O)n2-c2ccc3c(c2)OCCO3)cc1,"inconclusive: 11.2 µM [activator, partial curve]",–

SMILES,Potency,activation
COc1cc(/C=C2/NC(=O)N(Cc3ccccc3F)C2=O)ccc1O,"inconclusive: 3.16 µM [activator, single point]",–
CCOC(=O)c1c(C)[nH]c(C)c1S(=O)(=O)N1CCN(c2ccccc2OC)CC1,–,inactive: -0.415%
Cc1ccccc1CNC(=O)C1CCCN(c2nnc(-n3c(C)ccc3C)s2)C1 (configuration not stated),"inconclusive: 15.8 µM [activator, partial curve, poor fit]",–
CCOC(=O)c1c(NC(=O)c2cc(=O)c3c(C)cc(C)cc3o2)sc2c1CCC2,–,inactive: -1.11%
O=C(Nc1ccccc1O)c1ccc(C(=O)c2ccccc2)o1,active: 12.6 µM,–
C=C(C(=O)c1ccccc1)C(NC(C)(C)C)c1ccccc1 (configuration not stated),"inconclusive: 3.16 µM [activator, partial curve, poor fit]",–
CN(C)C(=O)CN1CCN(C(=O)CCl)CC1,"inconclusive: 22.4 µM [activator, single point]",–
Cc1nc2ccccn2c1C(=O)C(=O)Nc1cc(F)ccc1F,"inconclusive: 20 µM [activator, single point]",–
O=C(CSc1ncnc2ccccc12)c1ccc2c(c1)OCCO2,"inconclusive: 15.8 µM [activator, single point]",–
Cc1cc(C(=O)N/N=C/C=C/c2ccccc2[N+](=O)[O-])c(C)o1,"inconclusive: 14.1 µM [activator, single point]",–
O=C(CCC1CCCCC1)Nc1ccccc1O,"inconclusive: 12.6 µM [activator, partial curve]",–
CCCNC(=O)c1ccc(S(=O)(=O)c2ccc(OC)cc2)c([N+](=O)[O-])c1,"inconclusive: 1.78 µM [activator, full curve]",–
CN1C(=O)NC(c2ccccc2)C2=C1CN(c1cccc(C(F)(F)F)c1)C2=O (configuration not stated),–,inactive: 3.56%
c1cc2c3c(cccc3c1)NN=N2,"inconclusive: 2.82 µM [activator, full curve, poor fit]",–
Oc1oc(-c2ccccc2)nc1/C=N/c1nccs1,"inconclusive: 11.2 µM [activator, partial curve]",–
Cc1noc(/C=C/Nc2ccc(F)cc2F)c1[N+](=O)[O-],active: 2.82 µM,–
Cc1cc(C)cc(N2CN=c3s/c(=C\c4ccco4)c(=O)n3C2)c1,"inconclusive: 17.8 µM [activator, single point]",–
Oc1ccccc1/C=C/c1noc(-c2ccccc2O)n1,"inconclusive: 2.82 µM [activator, full curve, poor fit]",–
Cc1cccc(N/C=C/C(=O)c2cccs2)c1C,"inconclusive: 3.16 µM [activator, partial curve, poor fit]",–
Cc1cnc(NC(=O)C2CC(=O)N(c3cccc(Cl)c3)C2)s1 (configuration not stated),–,inactive: -0.0849%
Oc1ccccc1N=Cc1c(O)ccc2oc3c(c12)CCCC3,"inconclusive: 11.2 µM [activator, partial curve]",–
O=[N+]([O-])c1cccc(/C=N/NC2CCS(=O)(=O)C2)c1 (configuration not stated),"inconclusive: 20 µM [activator, single point]",–
Cc1sc(N/N=C/c2cccs2)nc1-c1ccccc1,"inconclusive: 5.01 µM [activator, partial curve]",–
CSc1ccc(CNC(=O)c2cc3c(=O)n(Cc4ccco4)ccc3nc2C)cc1,"inconclusive: 11.2 µM [activator, partial curve, poor fit]",–
